Results as given in the supplement of paper PMC4604168 (melanoma cell lines).
The other results are listed elsewhere or left out. Most values come without repeats; read them as rough.

test system: COLO829; assay: cell count relative to DMSO control; melanoma cells; higher = more viable cells; conditions: library dose: low library concentration; 72 h
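Further: cell number obtained by counting DAPI-stained nuclei in high-throughput microscope images with image analysis software, screen run in 1,536-well plates.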

SMILES | cell count
C[As](C)SC[C@H](NC(=O)CC[C@H](N)C(=O)O)C(=O)NCC(=O)O [Darinaparsin] + O=C(Nc1ccccc1)c1cc([N+](=O)[O-])ccc1Cl [GW9662] (first compound 0.4 µM, partner dose 2 µM) | 84%
C[As](C)SC[C@H](NC(=O)CC[C@H](N)C(=O)O)C(=O)NCC(=O)O [Darinaparsin] + Cc1cc(SCc2sc(-c3ccc(C(F)(F)F)c(F)c3)nc2C)ccc1OCC(=O)O [GW0742] (first compound 0.4 µM, partner dose 2 µM) | 103%
C[C@]12O[C@H](C[C@]1(O)CO)n1c3ccccc3c3c4c(c5c6ccccc6n2c5c31)CNC4=O [Lestaurtinib] + CCCS(=O)(=O)Nc1ccc(F)c(C(=O)c2c[nH]c3ncc(Cl)cc23)c1F [PLX4720] (first compound 0.004 µM, partner dose 0.08 µM) | 136%
C[C@]12O[C@H](C[C@]1(O)CO)n1c3ccccc3c3c4c(c5c6ccccc6n2c5c31)CNC4=O [Lestaurtinib] + O=C(O)[C@@H]1[O][Sb](=[O])([O][Sb]2(=[O])[O][C@H]([C@H](O)CO)[C@H](O)[C@H](C(=O)O)[O]2)[O][C@H]([C@H](O)CO)[C@@H]1O [stibogluconate] (first compound 0.004 µM, partner dose 2 µM) | 113%
C[C@]12O[C@H](C[C@]1(O)CO)n1c3ccccc3c3c4c(c5c6ccccc6n2c5c31)CNC4=O [Lestaurtinib] + O=C(O)c1ccc2c(c1)nc(Nc1cccc(Cl)c1)c1ccncc12 [CX4945] (first compound 0.004 µM, partner dose 0.4 µM) | 103%
C[As](C)SC[C@H](NC(=O)CC[C@H](N)C(=O)O)C(=O)NCC(=O)O [Darinaparsin] + O=C1NC(=O)/C(=C/c2ccc(-c3ccc(F)cc3O)o2)S1 [AS252424] (first compound 0.4 µM, partner dose 1 µM) | 94.1%
C[C@]12O[C@H](C[C@]1(O)CO)n1c3ccccc3c3c4c(c5c6ccccc6n2c5c31)CNC4=O [Lestaurtinib] + CC(C)C[C@H](NC(=O)[C@H](Cc1ccccc1)NC(=O)c1cnccn1)B(O)O [Bortezomib] (first compound 0.004 µM, partner dose 0.001 µM) | 74.5%
C[C@]12O[C@H](C[C@]1(O)CO)n1c3ccccc3c3c4c(c5c6ccccc6n2c5c31)CNC4=O [Lestaurtinib] + N.N.[Cl][Pt][Cl] [cisplatin] (first compound 0.004 µM, partner dose 1.6 µM) | 114%
C[C@]12O[C@H](C[C@]1(O)CO)n1c3ccccc3c3c4c(c5c6ccccc6n2c5c31)CNC4=O [Lestaurtinib] + NC1(c2ccc(-c3nc4ccn5c(=O)[nH]nc5c4cc3-c3ccccc3)cc2)CCC1 [MK2206] (first compound 0.004 µM, partner dose 0.4 µM) | 85.3%
C[C@]12O[C@H](C[C@]1(O)CO)n1c3ccccc3c3c4c(c5c6ccccc6n2c5c31)CNC4=O [Lestaurtinib] + C[C@]1(O)C[C@@H](c2nc(-c3ccc4ccc(-c5ccccc5)nc4c3)c3c(N)nccn32)C1 [OSI906] (first compound 0.004 µM, partner dose 0.4 µM) | 97.5%
C[C@]12O[C@H](C[C@]1(O)CO)n1c3ccccc3c3c4c(c5c6ccccc6n2c5c31)CNC4=O [Lestaurtinib] + C=C(c1ccc(C(=O)O)cc1)c1cc2c(cc1C)C(C)(C)CCC2(C)C [Bexarotene] (first compound 0.004 µM, partner dose 2 µM) | 114%
C[C@]12O[C@H](C[C@]1(O)CO)n1c3ccccc3c3c4c(c5c6ccccc6n2c5c31)CNC4=O [Lestaurtinib] + CN1CCN(c2ccc3nc(-c4c(N)c5c(F)cccc5[nH]c4=O)[nH]c3c2)CC1 [Dovitinib] (first compound 0.004 µM, partner dose 0.1 µM) | 112%
C[C@]12O[C@H](C[C@]1(O)CO)n1c3ccccc3c3c4c(c5c6ccccc6n2c5c31)CNC4=O [Lestaurtinib] + CCCCCCCCc1ccc(CCC(N)(CO)CO)cc1 [fingolimod] (first compound 0.004 µM, partner dose 2 µM) | 92.5%
